# PubChem BioAssay AID1240 (Sanford-Burnham Center for Chemical Genomics, 2008)
# About 800 (1.6%) of roughly 50,000 compounds showed an effect of 50% or more. This is one part of the list.
# Target: Bcl-2-like protein 10 (Homo sapiens) (UniProt Q9HD36)
# Experiment: TR3 peptide-Bcl-B binding displacers, biochemical primary FP assay, phenotype converters (AID 1240);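 further: 0% = Bcl-B with tracer peptide and DMSO and 100% = tracer peptide lacking Bcl-B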
# Conditions: GST-Bcl-B / FITC-TR3 peptide fluorescence polarization; stronger effect = higher value; compound at 3.75 mg/L
# UniProt Q9HD36, sequence (Q9HD36 whole entry, looked up): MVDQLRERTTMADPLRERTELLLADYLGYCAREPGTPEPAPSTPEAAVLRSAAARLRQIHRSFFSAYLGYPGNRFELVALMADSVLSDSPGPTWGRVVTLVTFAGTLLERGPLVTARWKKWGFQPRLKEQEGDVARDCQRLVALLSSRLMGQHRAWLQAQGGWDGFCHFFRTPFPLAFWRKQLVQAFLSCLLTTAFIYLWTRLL
row,SMILES,displacement [%]
1,CCCOc1ccc(C(=O)Nc2ccc(O)c(-c3nc4ccccc4s3)c2)cc1,16.5
2,Cc1c(Cl)cccc1NC(=O)C(=O)NCc1ccco1,3.2
3,Cc1ccc(N2C(=O)/C(=C/c3ccc(Oc4ccc([N+](=O)[O-])cn4)cc3)C(=O)NC2=S)c(C)c1,7.3
4,CCOC(=O)C(C(=O)OCC)=C(CCN1C(=O)c2ccccc2C1=O)OC(=O)CCN1C(=O)c2ccccc2C1=O,-4
5,COc1ccccc1N1CCN(/N=C\c2c(O)ccc3ccccc23)CC1,46.6
6,O=c1c(C=NC2CC2)c(-c2ccccc2)[nH]n1-c1ccc([N+](=O)[O-])cc1,5.9
7,Cc1nn(CC(=O)Nc2c(Cl)cccc2Cl)c(=O)c2ccccc12,-15.9
8,O=C(COc1ccc(Cl)cc1)Nc1nc(-c2ccc(S(=O)(=O)N3CCOCC3)cc2)cs1,9.4
9,O=C(Nc1ccc2c(c1)C(=O)N(c1ccccc1)C2=O)c1ccccc1Cl,0.1
10,COc1ccc(/C=C(\NC(=O)c2ccccc2)C(=O)NCc2ccncc2)cc1,12.6
11,CCCNc1nc(OCC(F)(F)F)nc(OCC(F)(F)F)n1,12.4
12,COc1ccccc1/C=C1\SC(=S)N(CCC(=O)NNC(=O)c2ccccc2O)C1=O,14.7
13,Cc1ccc(C(=O)Oc2ccc3c(C)cc(=O)oc3c2)cc1,3.9
14,O=C(CCC1CCCCC1)NCC1CCCO1 (stereo not drawn),-7.2
15,COc1cc(OC)cc(C(=O)Nc2ccc(C(N)=O)cc2)c1,9.6
16,Cc1c(Cl)cccc1N=Cc1c[nH]c2ccccc12,10.3
17,S=c1[nH]nc2c3c4c(sc3n3c(=S)[nH]nc3n12)CCC4,-1.2
18,COc1cccc(/C=C2\C(=O)NC(=O)N(c3ccccc3)C2=O)c1OC,-8.7
19,Cc1ccc(/C(O)=C2\C(=O)C(=O)N(c3nncs3)C2c2cccc(Br)c2)cc1 (stereo not drawn),18.7
20,CCOC(=O)c1c(NC(=O)C2CC2)sc(C(=O)Nc2cccc(OC)c2)c1C,-5.8
21,O=C(NC(=S)Nc1ccc(Cl)c(-c2nc3ccccc3s2)c1)c1ccco1,5.8
22,COc1ccc(Cc2c(O)nc(SC)n(-c3ccccc3)c2=O)cc1,-7.8
23,O=C1c2ccccc2C(=O)c2c1nc1n2CCOC1,4

row,SMILES,displacement [%]
1,N/C(Cc1cccc2ccccc12)=N\OC(=O)c1ccco1,6.6
2,CCOc1ccc(/C=N\N2CCN(c3ccccc3OC)CC2)cc1,-15.2
3,Cc1nn(-c2ccccc2C(=O)O)c(C)c1Oc1ccccc1O,-8.1
4,CCOC(=O)Cc1csc(NC(=O)/C=C\c2ccccc2Cl)n1,5.2
5,Clc1cccc(OCCCCN2CCCC2)c1,5.2
6,O=C(NCc1ccco1)c1cc2nc(-c3ccccc3)cc(C(F)(F)F)n2n1,1.6
7,Nc1nc(-c2ccccc2)cc(N2CCOCC2)n1,-10
8,Cc1ccc(NN2C(=O)c3cccc4cccc(c34)C2=O)cc1,-11.5
9,COc1ccc2c(c1)c(C1N3CC4(C)CN1CC(C)(C3)C4=O)c(C)n2C (stereo not drawn),4
10,O=C(NCC1CC2CC1C1CC21)C1C2C3C4CC5C3C5C4C12 (stereo not drawn),3.2
11,COc1ccc(NC(=O)C/C(C)=N/NC(=O)c2cnccn2)cc1,-21.6
12,Cc1cc(C)cc(N2C(=O)NC(=O)/C(=C\c3ccc(Cl)cc3)C2=O)c1,16.4
13,CCCOC(=O)c1ccc(NC(=O)c2cc(Br)ccc2OC)cc1,-6.7
14,Cc1cccc(NC(=O)C2C(c3ccccc3)C=CC(c3ccccc3)C2C(=O)O)c1C (stereo not drawn),-8.1
15,CCOc1ccc(N2C(=O)C3C(C(=O)OC)=NN(C(C)=O)C3C2=O)cc1 (stereo not drawn),21.6
16,COc1ccc(/C=N/n2cnc3sc4c(c3c2=O)CCCC4)cc1OC,5
17,C(=NN1CCN(c2ccccn2)CC1)c1ccc(OCc2ccccc2)cc1,-5.9
18,COc1ccc(-c2cc(C(=O)Nc3c(C)cccc3C)c3ccccc3n2)c(OC)c1,-2.3
19,CN(C)CCN1C(=O)C(=O)/C(=C(/O)c2ccccc2)C1c1ccc(Cl)cc1Cl (stereo not drawn),4.9
20,COc1ccccc1N(CC(=O)NC(C)(C)C)S(=O)(=O)c1ccccc1,47.1
21,CCOC(=O)c1c(-c2ccc(OC)cc2)csc1NC(=O)c1cccc([N+](=O)[O-])c1,12.6
22,COc1cc(/C=c2\sc3nc4ccccc4n3c2=O)ccc1OC(=O)c1cccs1,15.4
23,CCc1ccccc1N(CC(=O)Nc1cccc(OC)c1)S(C)(=O)=O,0

row,SMILES,displacement [%]
1,O=C(Nc1nnc(C23CC4CC(CC(C4)C2)C3)s1)c1ccccc1F,14
2,O=C(c1cccc(OCc2ccccc2)c1)N1CCN(c2ccc([N+](=O)[O-])cc2)CC1,14.9
3,CCOC(=O)/C=C1\NC2(CCCCC2)Cc2cc(OC)c(OC)cc21,-10.3
4,CC(=O)NS(=O)(=O)c1ccc(NC(=O)Nc2cccc(Cl)c2)cc1,11.1
5,CCCCOc1ccc(S(=O)(=O)N(Cc2ccccc2)Cc2ccccc2)cc1,0.7
6,Cc1ccc(S(=O)(=O)N(CCc2ccccc2)CC(=O)NCc2ccc(Cl)cc2)cc1,13.8
7,CSc1nnc2c(n1)OC(c1ccc(C)cc1)Nc1ccccc1-2 (stereo not drawn),12.9
8,CCOc1ccccc1OCCCOc1ccccc1OCC,19.9
9,C(=Nn1cnnc1)c1ccc2c(c1)OCO2,-0.9
10,O=C(CCN1C(=O)S/C(=C\c2ccccc2)C1=O)N1CCCCC1,-9.1
11,COc1ccc(S(=O)(=O)Nc2ncccc2Cl)cc1,-6.8
12,COc1cc2ccccc2cc1C(=O)Nc1cccc(-c2nc3ncccc3o2)c1,-0.8
13,CN(C)c1ccc(C2C=Cc3ccccc3N2C(=O)c2ccccc2)cc1 (stereo not drawn),30.4
14,CC1=CC(C)(C)N(C(=O)c2ccc([N+](=O)[O-])cc2)c2ccccc21,-1.7
15,COC(=O)C1=C(C)N(c2ccc(OC)cc2)C(=O)/C1=C\c1ccc(O)cc1,11.4
16,COC(=O)c1c(C)oc2cc(Br)c(OCC(=O)C(C)(C)C)cc12,7.5
17,COC(=O)c1c(C)oc2ccc(OCc3ccc([N+](=O)[O-])cc3)cc12,11.2
18,CN1CCN(/N=C/c2c3ccccc3cc3ccccc23)CC1,-3.8
19,Cc1ccc(NC(=O)COc2ccccc2C)c(Br)c1,-0.9
20,O=C(c1nn2c(C(F)(F)F)cc(-c3ccc(Br)cc3)nc2c1Cl)N1CCOCC1,11.9
21,CC1(C)NN(c2ccccc2)C(=S)N1c1ccccc1,9.6
22,NS(=O)(=O)c1cccc(NC(=O)c2cccs2)c1,1.4
